The supplement of paper PMC12217912
The other results are listed elsewhere or left out. The full chains were built here from the parent and the listed change. Inactive controls read about 0.05.

B1: TEV protease; numbered along this chain (parent)
chain: MGESLFKGPRDYNPISSSICHLTNESDGHTTSLYGIGFGPFIITNKHLFRRNNGTLVVQSLHGVFKVKDTTTLQQHLVDGRDMIIIRMPKDFPPFPQKLKFREPQREERICLVTTNFQTKSMSSMVSDTSCTFPSGDGIFWKHWIQTKDGQCGSPLVSTRDGFIVGIHSASNFTNTNNYFTSVPKNFMELLTNQEAQQWVSGWRLNADSVLWGGHKVFMVKPEEPFQPVKEATQL

Variants of: B1
Experiment: raw area under fraction-flipped curve 0-4 h after induction (AUC4h, not background-subtracted), DNA-recorder readout of cleavage of the substrate (dimensionless); higher = more cleavage of the substrate by the protease variant
Settings: temperature: 34 °C; time window: 0-4 h after rhamnose induction
Description: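 In vivo DNA recorder in E. coli TOP10(DE3) ΔrhaA at 34 °C. Each TEVp single-site mutant (parent TEVp 0) is paired with a single-site variant of the 7-mer TEVs (canonical ENLYFQ|S). The substrate sits between flexible linkers in a Bxb1-sfGFP-TEVs-SsrA fusion, so cleavage stabilises Bxb1 and speeds flipping of a recombination array, read by NGS. The value is the raw area under the fraction-flipped curve over 0-4 h after rhamnose induction (AUC4h), with ≥20 reads per time point. It is not background-subtracted; inactive controls average about 0.047.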
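Also: Bxb1 expression induced with 0.2% (w/v) L-rhamnose at OD600 near 0.5, cultures sampled hourly, flipped fraction per protease–substrate barcode pair counted by paired-end Illumina sequencing.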

| Variant | area with substrate ENLAFQS | area with substrate ENLDFQS | area with substrate ENLFFQS | area with substrate ENLGFQS | area with substrate ENLHFQS | area with substrate ENLIFQS | area with substrate ENLKFQS | area with substrate ENLPFQS | area with substrate ENLCFQS | area with substrate ENLEFQS |
| --- | --- | --- | --- | --- | --- | --- | --- | --- | --- | --- |
| I84H | 0.0584 | 0.0689 | 0.069 | 0.044 | 0.0642 | 0.0642 | 0.051 | 0.0592 |  |  |
| G214E | 0.0695 | 0.0697 | 0.0507 |  | 0.0527 |  | 0.033 |  | 0.0623 | 0.0533 |
| G2K | 0.0718 |  | 0.16 |  | 0.0772 |  |  | 0.0515 |  |  |
| G2F | 0.0704 | 0.0677 | 0.101 |  | 0.0815 | 0.107 | 0.102 | 0.0679 | 0.0944 |  |
| W141F | 0.0545 | 0.0563 | 0.0778 | 0.0691 | 0.0611 |  | 0.0772 | 0.0564 | 0.0564 |  |
| Q75D | 0.0373 | 0.054 | 0.0527 | 0.0606 | 0.063 | 0.0547 |  |  |  |  |
| T174G | 0.062 | 0.0646 | 0.0784 |  | 0.0613 | 0.07 | 0.0657 | 0.063 | 0.0705 | 0.0598 |
| I86C | 0.0967 | 0.0652 |  |  | 0.0717 |  |  |  |  | 0.0562 |
| F65I | 0.0535 | 0.0672 | 0.0605 |  |  | 0.0852 |  | 0.0676 | 0.0575 | 0.0662 |
| R51S | 0.0722 |  | 0.0556 |  |  |  |  | 0.0583 |  |  |
| R51N | 0.0789 |  | 0.0698 |  |  |  | 0.0558 |  |  |  |
| S209N | 0.063 |  |  | 0.059 |  |  |  | 0.0556 |  |  |
| V183G | 0.0627 | 0.0476 | 0.0674 |  |  | 0.0378 |  |  |  | 0.0549 |
| S18G | 0.0682 | 0.0733 | 0.115 |  | 0.0618 |  | 0.0849 | 0.0539 |  |  |
| P93W | 0.0712 | 0.06 |  |  | 0.0555 |  | 0.0325 |  | 0.0651 |  |
| Y12R | 0.0574 | 0.0597 | 0.095 |  | 0.0636 | 0.0807 | 0.0807 | 0.0637 |  | 0.0546 |
| K66Y | 0.063 | 0.0759 | 0.0929 | 0.0653 | 0.0629 | 0.0882 | 0.0796 | 0.0723 | 0.0755 | 0.0592 |
| N177T | 0.0765 | 0.067 | 0.102 |  | 0.102 |  |  |  |  | 0.0516 |
| K90M | 0.0583 |  | 0.102 |  |  |  |  | 0.0582 | 0.0554 |  |

| Variant | area with substrate ENLAFQS | area with substrate ENLDFQS | area with substrate ENLFFQS | area with substrate ENLGFQS | area with substrate ENLHFQS | area with substrate ENLIFQS | area with substrate ENLKFQS | area with substrate ENLPFQS | area with substrate ENLCFQS | area with substrate ENLEFQS |
| --- | --- | --- | --- | --- | --- | --- | --- | --- | --- | --- |
| S135L | 0.0658 |  | 0.0594 |  |  |  |  |  |  | 0.0619 |
| Q197I | 0.0285 |  | 0.0926 | 0.0653 | 0.068 |  | 0.105 |  |  |  |
| M83L | 0.0704 | 0.0571 |  |  |  |  | 0.0661 | 0.0402 |  |  |
| F218V | 0.0506 | 0.0575 | 0.062 | 0.0671 | 0.0605 | 0.0465 | 0.0802 | 0.0477 |  |  |
| N172P | 0.0763 | 0.0444 |  |  | 0.0762 |  |  |  |  |  |
| N172Q | 0.0583 |  |  |  |  |  |  |  |  | 0.0556 |
| F38V | 0.045 | 0.0602 | 0.0624 |  |  |  |  |  |  |  |
| A207R | 0.0698 | 0.0623 | 0.0841 | 0.0703 |  |  | 0.066 |  |  |  |
| K185L | 0.0657 |  |  |  | 0.0785 |  |  |  |  | 0.0841 |
| K7V | 0.0511 | 0.0705 | 0.112 |  | 0.0618 | 0.0565 | 0.113 | 0.0886 |  | 0.0654 |
| P9N | 0.0822 |  |  |  |  | 0.0921 |  |  |  |  |
| I164V | 0.0689 |  |  |  |  |  | 0.0669 |  | 0.0647 |  |
| S182H | 0.0659 | 0.0554 | 0.0623 |  | 0.0525 |  | 0.0438 |  |  | 0.0553 |
| T233W | 0.0533 | 0.0375 | 0.11 |  | 0.0714 | 0.0727 |  | 0.0476 |  | 0.0418 |
| L99E | 0.0657 | 0.0467 | 0.0742 | 0.0618 | 0.06 |  |  |  | 0.0772 | 0.0561 |
| P155G | 0.0525 | 0.0585 | 0.0564 |  | 0.0859 |  | 0.0526 | 0.03 |  | 0.051 |
| L77R | 0.0584 | 0.0671 | 0.064 |  | 0.0634 |  | 0.0574 |  |  | 0.0612 |
| D82M | 0.0594 | 0.0862 | 0.0494 |  |  |  | 0.0465 |  |  | 0.0558 |
| R87T | 0.0524 | 0.0665 | 0.0581 |  |  |  |  |  |  |  |

Same assay, conditions: temperature: 34 °C; time window: 0-4 h after rhamnose induction

| Variant | area with substrate ENLSFQS | area with substrate ENLNFQS | area with substrate ENLQFQS | area with substrate ENLWFQS | area with substrate ENLRFQS | area with substrate ENLLFQS | area with substrate ENLMFQS | area with substrate ENLTFQS | area with substrate ENLVFQS |
| --- | --- | --- | --- | --- | --- | --- | --- | --- | --- |
| G214E | 0.0661 |  |  |  |  |  |  |  |  |
| G2K | 0.0672 | 0.0588 | 0.0662 | 0.0906 |  |  |  |  |  |
| G2F | 0.0731 |  | 0.118 |  | 0.0829 |  |  |  |  |
| W141F | 0.0542 | 0.0517 | 0.0697 |  | 0.0568 | 0.0791 | 0.0635 | 0.048 | 0.0806 |
| Q75D | 0.0607 | 0.0654 | 0.0482 | 0.0576 |  | 0.0358 |  |  |  |
| T174G |  | 0.0647 |  |  |  |  |  |  |  |
| I86C | 0.0618 |  | 0.0625 | 0.0549 |  |  |  |  |  |
| F65I |  |  |  |  |  | 0.0711 |  | 0.0711 |  |
| R51N |  | 0.0664 | 0.0574 |  |  |  |  |  |  |
| S209N |  | 0.0871 |  |  |  |  |  |  |  |
| V183G | 0.0407 | 0.0232 |  | 0.0343 | 0.0488 | 0.0508 |  |  | 0.0358 |
| S18G |  | 0.0658 | 0.0474 |  | 0.0664 | 0.0836 | 0.0847 | 0.0526 |  |
| P93W |  |  |  |  | 0.0618 |  | 0.0877 |  |  |
| Y12R | 0.0771 | 0.0439 | 0.0573 |  | 0.0798 | 0.0767 |  |  | 0.081 |
| K66Y | 0.0659 | 0.0722 |  | 0.0938 | 0.0807 |  | 0.0558 |  | 0.1 |
| N177T |  | 0.0882 | 0.103 |  |  |  |  |  | 0.148 |
| S135L | 0.0597 |  |  |  |  |  |  |  | 0.0494 |

| Variant | area with substrate ENLSFQS | area with substrate ENLNFQS | area with substrate ENLQFQS | area with substrate ENLWFQS | area with substrate ENLRFQS | area with substrate ENLLFQS | area with substrate ENLMFQS | area with substrate ENLTFQS | area with substrate ENLVFQS |
| --- | --- | --- | --- | --- | --- | --- | --- | --- | --- |
| Q197I | 0.0722 | 0.088 | 0.0789 |  | 0.0885 |  | 0.0778 | 0.0815 |  |
| M83L | 0.0645 |  |  | 0.0625 | 0.0566 |  | 0.0738 |  |  |
| F218V | 0.0593 | 0.061 | 0.0707 | 0.0613 | 0.0447 | 0.0615 |  |  |  |
| N172Q |  |  |  |  |  | 0.0469 |  |  |  |
| F38V |  | 0.0606 | 0.0563 | 0.0675 |  | 0.0725 |  |  |  |
| A207R | 0.0814 | 0.0538 | 0.0499 |  | 0.0668 |  |  |  |  |
| K185L | 0.0363 |  |  | 0.0714 | 0.082 | 0.083 |  |  |  |
| K7V | 0.0545 | 0.0527 |  |  | 0.0651 | 0.0711 | 0.0152 |  | 0.0669 |
| P9N |  |  | 0.0616 | 0.0693 |  | 0.0803 |  |  |  |
| I164V |  |  |  |  |  | 0.0615 |  |  |  |
| S182H |  | 0.0517 |  |  | 0.0485 |  |  |  |  |
| T233W | 0.0731 | 0.0611 |  | 0.0776 | 0.08 | 0.0858 |  |  |  |
| L99E | 0.0539 |  | 0.07 |  | 0.0645 |  |  |  |  |
| P155G |  | 0.0591 |  | 0.041 | 0.0572 |  | 0.0504 |  | 0.0691 |
| L77R |  |  |  | 0.0407 |  | 0.0448 |  |  |  |
| D82M |  | 0.0465 | 0.054 |  |  |  | 0.0664 |  |  |
| R87T |  | 0.067 |  | 0.0612 |  | 0.0827 | 0.0533 |  | 0.0648 |
